From PubChem BioAssay AID624417 (National Center for Advancing Translational Sciences (NCATS), 2012)
The whole screen tested about 410,000 compounds, of which about 6,400 (1.6%) were called active. The shares of active, inactive and inconclusive entries below differ from those in the screen. Calls follow the shape of the dose curve; as a rule, active = well fitted inhibition curve with a large enough effect; inconclusive = small, poorly fitted or top-dose-only effect; inactive = no such curve, though single readings can be large or run the other way. No potency is given beside an inconclusive call; the fits are too rough.

biological target: Glucagon-like peptide 1 receptor (Homo sapiens) (UniProt P43220); assay: qHTS of GLP-1 Receptor Inverse Agonists (Inhibition Mode); conditions: HEK293 GLP-1R CRE-luciferase, luminescence, 24 h, GLP-1R form is constitutively active; series mostly up to 38.3 µM; also: nearly all actives have a fitted effect of over 55% in size
How it was run: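 Using stably transfected HEK293 (constitutively active GLP-1R, cAMP-luciferase reporter), compounds were incubated 24 hr and luciferase measured by luminescence.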
Potency is read from the fitted curve at half-maximal effect; tags tell the direction and shape of the fitted curve.

Sequence of UniProt P43220 (P43220 whole entry, looked up): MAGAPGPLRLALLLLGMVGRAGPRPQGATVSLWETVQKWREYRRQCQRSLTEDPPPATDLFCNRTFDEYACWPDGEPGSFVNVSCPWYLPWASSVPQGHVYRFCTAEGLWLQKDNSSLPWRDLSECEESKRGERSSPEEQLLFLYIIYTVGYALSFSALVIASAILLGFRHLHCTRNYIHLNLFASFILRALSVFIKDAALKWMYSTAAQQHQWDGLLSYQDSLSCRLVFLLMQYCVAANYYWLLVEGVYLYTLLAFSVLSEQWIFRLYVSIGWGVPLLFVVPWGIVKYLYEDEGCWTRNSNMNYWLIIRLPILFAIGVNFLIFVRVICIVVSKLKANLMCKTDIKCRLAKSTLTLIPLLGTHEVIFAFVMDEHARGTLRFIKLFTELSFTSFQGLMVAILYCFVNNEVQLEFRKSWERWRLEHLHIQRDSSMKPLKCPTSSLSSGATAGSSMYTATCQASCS

**Q.** CCOC(=O)c1sc(NC(=O)Nc2ccc(F)cc2)nc1C was tested. Which Potency did it give?
**A.** inconclusive [inhibitor, partial curve, poor fit]

**Q.** How did the Potency turn out when O=C(NC(=S)Nc1ccc(S(=O)(=O)NC2CCCCC2)cc1)c1cccs1 was run?
**A.** inconclusive [inhibitor, single point]

**Q.** With CCOC(=O)C1CCN(CCCSc2ccccc2)CC1 as the compound, how does the Potency read?
**A.** inactive

**Q.** For Cc1ccccc1-c1nc2c3ccccc3nc(=S)n2[nH]1, which Potency is on record?
**A.** inconclusive [inhibitor, full curve, poor fit]

**Q.** How did the Potency turn out when O=C(Nc1ccc([N+](=O)[O-])cc1)c1cc2ccccc2nc1Cl was run?
**A.** inconclusive [inhibitor, single point]

**Q.** For CCc1ccc(NC(=O)C(=O)NCCc2csc(-c3ccc(C(F)(F)F)cc3)n2)cc1, which Potency is on record?
**A.** inactive

**Q.** CC(C)(C)NC(=O)C(c1ccc(-c2ccccc2)cc1)n1c(=O)c(-c2cc3ccccc3[nH]2)nc2ccccc21 (stereo not drawn) was tested. Which Potency did it give?
**A.** inconclusive [inhibitor, partial curve, poor fit]

**Q.** With COc1cccc(NC(=O)C(OC(=O)c2cnc(C)cn2)c2ccccc2)c1 (stereo not drawn) as the compound, how does the Potency read?
**A.** inactive

**Q.** How did the Potency turn out when O=C(COc1ccc(Br)cc1)Nc1ccc(CN2CCOCC2)cc1 was run?
**A.** inconclusive [inhibitor, single point]

**Q.** With COC(=O)C1=C(C)N(Cc2ccccc2)C(=NCc2cccc(C(F)(F)F)c2)N[C@H]1c1cccc(F)c1 as the compound, how does the Potency read?
**A.** inconclusive [inhibitor, partial curve, poor fit]

**Q.** Which Potency does the source give for CCn1c(CCc2ccccc2)nc2ccccc21 here?
**A.** inconclusive [inhibitor, single point]

**Q.** For O=C(O)c1cc(O)ccc1O, which Potency is on record?
**A.** inactive

**Q.** Which Potency does the source give for CCCCOc1ccccc1N1CCN(CCCN2C(=O)C3CCCN3C2=O)CC1 (stereo not drawn) here?
**A.** inactive

**Q.** For CC(C)OCCCNC(=O)c1cc2c(-c3ccc(Cl)cc3)nn(C)c2s1, which Potency is on record?
**A.** inactive

**Q.** For Cc1ccc(-c2nc(CS(=O)CC(=O)NCCN3CCCC3)c(C)o2)cc1 (stereo not drawn), which Potency is on record?
**A.** inactive

**Q.** How did the Potency turn out when Cc1ccc(OCC(=O)N2CCCC(CCC(=O)N(C)CCc3ccccn3)C2)cc1 (stereo not drawn) was run?
**A.** inactive

**Q.** How did the Potency turn out when COc1ccc(C(=O)/C=C/C(=O)N(CC(=O)NC2CCCCC2)Cc2cccs2)c(O)c1 was run?
**A.** inactive

**Q.** Which Potency does the source give for COc1cc(NC(=O)C2CCCN(S(=O)(=O)c3ccc4c(c3)oc(=O)n4C)C2)c(C(=O)O)cc1OC (stereo not drawn) here?
**A.** inactive

**Q.** How did the Potency turn out when CCc1noc(C)c1C(=O)NC1CCCc2c1cnn2-c1cc(C)cc(C)c1 (stereo not drawn) was run?
**A.** inconclusive [inhibitor, partial curve, poor fit]

**Q.** For Cc1nc(Cl)c(C(=O)Nc2cccc(F)c2)c(C)c1Cl, which Potency is on record?
**A.** inconclusive [inhibitor, partial curve, poor fit]

**Q.** Which Potency does the source give for CN(CC(=O)Nc1ccccc1Cl)C(=O)c1cc(C2CC2)nn1-c1ccccc1 here?
**A.** inconclusive [inhibitor, single point]

**Q.** COc1cc(C(=O)N2Cc3cc4ccccc4nc3C2C)cc(OC)c1OC (stereo not drawn) was tested. Which Potency did it give?
**A.** inactive

**Q.** With Cc1ccc(C(=O)Cn2nnc(-c3ccccc3)n2)cc1 as the compound, how does the Potency read?
**A.** inconclusive [inhibitor, single point]

**Q.** CC(C)(C)c1ccc(/C=C/C(=O)N2CCCCC2)cc1 was tested. Which Potency did it give?
**A.** inconclusive [inhibitor, partial curve, poor fit]

**Q.** Which Potency does the source give for CNC(=S)N/N=C/c1cn(CCOc2ccccc2OC)c2ccccc12 here?
**A.** inconclusive [inhibitor, partial curve, poor fit]

**Q.** Which Potency does the source give for O=C(Nc1nc2n(n1)C(c1ccccc1)C=C(c1ccccc1)N2)c1ccc(Cl)c([N+](=O)[O-])c1 (stereo not drawn) here?
**A.** inactive

**Q.** For CCOC(=O)c1ccc(N2C(=O)c3n[nH]c(-c4cccs4)c3C2c2ccc(C(C)(C)C)cc2)cc1 (stereo not drawn), which Potency is on record?
**A.** inactive

**Q.** Which Potency does the source give for COc1ccc(S(=O)(=O)Nc2cccc3ccc(O)cc23)cc1 here?
**A.** inconclusive [inhibitor, full curve]

**Q.** Which Potency does the source give for Cc1c(C(=O)Nc2ccc3c(c2)CCC3)cccc1[N+](=O)[O-] here?
**A.** inconclusive [inhibitor, single point]

**Q.** Which Potency does the source give for COc1cccc(-c2ccc3c(N)c(C(=O)c4ccc(Cl)cc4)sc3n2)c1 here?
**A.** inconclusive [inhibitor, single point]

**Q.** For CCC(C)NC(=O)Cn1ncc2c([nH]c3ccc(C)cc32)c1=O (stereo not drawn), which Potency is on record?
**A.** inactive

**Q.** How did the Potency turn out when O=C1OCCC1(c1ccccc1)c1ccccc1 was run?
**A.** inconclusive [inhibitor, single point]

**Q.** Which Potency does the source give for CCCC[C@@H]1C[C@H]1[C@@H](NC(=O)c1cccs1)c1ccc(Cl)cc1 here?
**A.** inconclusive [inhibitor, partial curve, poor fit]

**Q.** For CCOC(=O)c1cc(NC(=O)Nc2ccccc2Cl)c(C)nc1C, which Potency is on record?
**A.** inconclusive [inhibitor, single point]

**Q.** Which Potency does the source give for Cc1ccc(S(=O)(=O)N(C)C)cc1NC(=O)C(C)N(C)CCOc1ccc(Cl)cc1 (stereo not drawn) here?
**A.** inconclusive [inhibitor, single point]

**Q.** With Cc1ccc(-c2csc(NCCc3nc4cc(Cl)c(Cl)cc4n3CCCO)n2)cc1 as the compound, how does the Potency read?
**A.** inconclusive [inhibitor, single point]

**Q.** Which Potency does the source give for Cc1cccc(C)c1Nc1sc(C(=O)c2ccccc2)c(N)c1C(=O)Nc1ccc(F)cc1 here?
**A.** active: 11.2 µM

**Q.** How did the Potency turn out when CCOC(=O)C1=C(C)N(C[C@@H]2CC[C@@H](Cc3ccc(-c4ccccc4)cc3)O2)C(=O)NC1c1ccc(Cl)cc1 (stereo partly drawn) was run?
**A.** inconclusive [inhibitor, partial curve, poor fit]

**Q.** CC(C)(Oc1ccc(Cl)cc1)C(=O)N(Cc1ccccc1)c1ccccn1 was tested. Which Potency did it give?
**A.** active: 10 µM

**Q.** Which Potency does the source give for CCCCC1=CC2=CC(=O)C(C)(OC(=O)CC)C(=O)C2=CN1c1ccccc1 (stereo not drawn) here?
**A.** inconclusive [inhibitor, single point]

**Q.** For CCC(c1nnnn1C(C)(C)C)N1CCN(c2cc(Cl)ccc2C)CC1 (stereo not drawn), which Potency is on record?
**A.** inconclusive [inhibitor, partial curve, poor fit]

**Q.** How did the Potency turn out when Cc1ccc(S(=O)(=O)N(CC(=O)Nc2ccccc2C(=O)O)c2ccccc2)cc1 was run?
**A.** inconclusive [inhibitor, partial curve, poor fit]

**Q.** For CC(C)(C)C1(O)CC(C(F)(F)F)=NN1C(=O)CCCc1ccccc1 (stereo not drawn), which Potency is on record?
**A.** inconclusive [inhibitor, single point]

**Q.** Clc1ccc(N2CCN(c3ncnc4c3nc3n4CCCC3)CC2)cc1 was tested. Which Potency did it give?
**A.** inactive

**Q.** How did the Potency turn out when COCCOC1CCN(Cc2cn(Cc3ccccc3)nc2-c2cc3ccccc3o2)CC1 was run?
**A.** inconclusive [inhibitor, single point]

**Q.** How did the Potency turn out when COc1ccc(NS(=O)(=O)c2cc(NC(=O)c3cc(F)c(F)c(F)c3F)ccc2N2CCCC2)cc1 was run?
**A.** inconclusive [inhibitor, partial curve, poor fit]

**Q.** Which Potency does the source give for COc1ccc2c(c1)CC(C(=O)NCCCN1CCN(c3ccc(F)cc3)CC1)CO2 (stereo not drawn) here?
**A.** inconclusive [inhibitor, single point]

**Q.** For O=C(COc1ccc([N+](=O)[O-])cc1)NNC(=O)Nc1ccccc1F, which Potency is on record?
**A.** inconclusive [inhibitor, partial curve]

**Q.** For O=C(CSCc1ccccc1)N1CCN(c2ccc(F)cc2)CC1, which Potency is on record?
**A.** inconclusive [inhibitor, partial curve]

**Q.** With CNC(=O)c1nc(C)c(C2(C)CC(c3ccccc3)=NO2)s1 (stereo not drawn) as the compound, how does the Potency read?
**A.** inactive

**Q.** With CC(C)(C)N=C1NN=C(c2ccc(S(=O)(=O)N3CCCCC3)cc2)CS1 as the compound, how does the Potency read?
**A.** inconclusive [inhibitor, single point]

**Q.** For Cc1ccc(Cl)cc1N1CCN(c2ncnc3onc(C)c23)CC1, which Potency is on record?
**A.** inactive

**Q.** CCOC(=O)c1c(SCC(=O)Nc2nccs2)nc(C)c(C)c1C was tested. Which Potency did it give?
**A.** inactive

**Q.** With Cc1ccc(-n2ncc3c2CCCC3NC(=O)c2cnccn2)cc1C (stereo not drawn) as the compound, how does the Potency read?
**A.** inactive

**Q.** With CCOC(=O)c1c(C)nc2sc(C(=O)Nc3ccc(OC)cc3)c(N)c2c1-c1ccc(OC)cc1 as the compound, how does the Potency read?
**A.** inactive

**Q.** CCOC(=O)C1CCCN(c2nc3c(S(=O)(=O)c4ccc(C)c(C)c4)nnn3c3ccc(Cl)cc23)C1 (stereo not drawn) was tested. Which Potency did it give?
**A.** inactive

**Q.** For COc1ccc(Cl)cc1NC(=O)CN(C)CC(=O)Nc1ccccc1-c1ccccc1, which Potency is on record?
**A.** inconclusive [inhibitor, partial curve, poor fit]

**Q.** How did the Potency turn out when CCCCCCCCCOC(=O)C1N2C(=O)[C@@H](NC(=O)COc3ccccc3)[C@H]2SC1(C)C (stereo partly drawn) was run?
**A.** inconclusive [inhibitor, partial curve, poor fit]

**Q.** Which Potency does the source give for N=C(N)SCc1ccccc1Cl here?
**A.** inconclusive [inhibitor, partial curve, poor fit]

**Q.** For Cc1ccc(-c2noc(CN(C(=O)C(c3ccccc3)c3ccccc3)C(C)C)n2)cc1, which Potency is on record?
**A.** inconclusive [inhibitor, partial curve, poor fit]

**Q.** With O=C(Cc1ccc(F)cc1)NCCS(=O)(=O)N1CCN(c2cccc(Cl)c2)CC1 as the compound, how does the Potency read?
**A.** active: 10 µM

**Q.** How did the Potency turn out when CCN1C(N(C)CCc2cccs2)=N[C@@H](c2ccccc2)C(C(=O)OC)=C1C was run?
**A.** inactive

**Q.** O=c1c2ccccc2c(-c2cccc(C(F)(F)F)c2)nn1-c1ccccc1 was tested. Which Potency did it give?
**A.** inconclusive [inhibitor, single point]

**Q.** How did the Potency turn out when COc1ccc(NC(=O)C2Cc3c(-c4cccc(NC(C)=O)c4)ccnc3O2)cc1OC (stereo not drawn) was run?
**A.** inactive

**Q.** Which Potency does the source give for Cc1cccc(NS(=O)(=O)c2ccc(C(=O)NCC(C)(C)N3CCOCC3)cc2)c1C here?
**A.** inconclusive [inhibitor, single point]

**Q.** Which Potency does the source give for COc1ccccc1CNC(=O)c1ccc(-c2nc(CN3CCc4ccccc43)c(C)o2)cc1 here?
**A.** inconclusive [inhibitor, partial curve, poor fit]

**Q.** With Cc1ccccc1C(=O)N(Cc1nc2ccccc2c(=O)[nH]1)C1CCCC1 as the compound, how does the Potency read?
**A.** active: 12.6 µM

**Q.** For CCOc1ccc(/C=C(\C#N)C(=O)Nc2cccnc2)cc1, which Potency is on record?
**A.** inactive
